{"source": "PubChem BioAssay (NCATS)", "note": "The inconclusive results got no clear call from the source; some entries with a clear call stand among them for comparison. A potency beside an inconclusive call is a rough fit, not a confirmed value. The source made the active and inactive calls. Calls come from the whole dose curve; as a rule, active = well fitted inhibition curve with a large enough effect; inconclusive = small, poorly fitted or top-dose-only effect; inactive = no such curve, though single readings can be large or run the other way. % is set by controls: 0 for no effect and ±100 for the full control effect; potency is the fitted concentration of half-maximal effect; tags give direction and shape of the fitted curve.", "data": [{"assay": "Primary qHTS for inhibitors of nuclear receptor binding SET domain protein 2 (NSD2) in an RCH-ACV wild type WT cells (2C) (AID 1645877); note: nearly all actives have a fitted effect of over 70% in size", "details": "RCH-ACV NSD2 WT (2C) viability, CellTiter-Glo, 72 h; series mostly up to 44.9 µM; activity change, negative = cell killing: at the top concentration", "values": [{"smiles": "CC1(C)C(C=C(Cl)Cl)C1C(=O)OC(C#N)c1cccc(Oc2ccccc2)c1", "note": "(centres undefined)", "activity change, negative = cell killing": "inactive: -6.46%"}, {"smiles": "c1ccc([C@@H]2C[C@H]2NC2CCNCC2)cc1", "Potency": "inconclusive: 0.728 µM [inhibitor, partial curve, poor fit]"}, {"smiles": "c1cc2ccc3cccc4ccc(c1)c2c34", "activity change, negative = cell killing": "inactive: -4.61% [at 91.9 µM]"}, {"smiles": "C[C@H]1O[C@@H](O[C@H]2CC[C@]3(CO)C4CC[C@]5(C)[C@@H](C6=CC(=O)OC6)CC[C@]5(O)[C@@H]4CC[C@H]3C2)[C@H](O)[C@H](O)[C@@H]1O[C@@H]1O[C@H](CO)[C@@H](O)[C@H](O)[C@H]1O", "note": "(some centres undefined)", "Potency": "active: 1.08 µM"}, {"smiles": "Cc1[nH]c2ccc(Cl)cc2c1CCN(C)C", "Potency": "inconclusive: 23 µM [inhibitor, partial curve, poor fit]"}, {"smiles": "C[C@@H](CN1CCC2(CC1)C(=O)NCN2c1cccc(F)c1)NC(=O)c1ccc(Br)cc1", "Potency": "inconclusive: 7.28 µM [inhibitor, partial curve, poor fit]"}, {"smiles": "CCN1CC2(COC)C3[C@@H](OC)C4C1C3(C1C[C@]3(O)[C@H](OC(=O)c5ccccc5)C1[C@]4(OC(C)=O)[C@@H](O)[C@@H]3OC)[C@H](OC)C[C@H]2O", "note": "(some centres undefined)", "activity change, negative = cell killing": "inactive: 2.23%"}, {"smiles": "CC(=O)O[C@H]1C[C@@H](C)O[C@H]2O[C@@H]3CC4CC[C@@H]5C(CC[C@]6(C)[C@@H](C7=CC(=O)OC7)CC[C@]56O)[C@@]4(C=O)C[C@H]3O[C@]21O", "note": "(some centres undefined)", "Potency": "active: 0.0682 µM"}, {"smiles": "O=C(Nc1ccccc1-c1ccc(Cl)cc1)c1cccnc1Cl", "Potency": "inconclusive: 34.4 µM [inhibitor, partial curve, poor fit]"}, {"smiles": "COc1ccc(C(CN(C)C)C2(O)CCCCC2)cc1", "note": "(centres undefined)", "activity change, negative = cell killing": "inactive: -6.25%"}, {"smiles": "CCC(=O)O[C@H]1CC[C@H]2[C@@H]3CCC4=CC(=O)CC[C@]4(C)[C@H]3CC[C@]12C", "Potency": "inconclusive: 26.6 µM [inhibitor, single point]"}, {"smiles": "COCC(C(=O)OC1CC2CCC(C1)N2C)c1ccccc1", "note": "(centres undefined)", "outcome": "inactive"}, {"smiles": "CCN1C[C@]2(OC(=O)c3ccccc3NC(C)=O)CC[C@H](OC)[C@@]34[C@@H]2C[C@@H]([C@@H]13)[C@@]1(O)C[C@H](OC)[C@H]2C[C@@H]4[C@]1(O)[C@H]2OC", "outcome": "inactive"}, {"smiles": "C[C@]12CC[C@H]3[C@@H](CC[C@@]45O[C@H]4C(O)=C(C#N)C[C@]35C)[C@H]1CC[C@H]2O", "Potency": "active: 10.6 µM"}, {"smiles": "CCC(CC)(CNC(=O)CCCO)c1cccc(OC)c1", "activity change, negative = cell killing": "inactive: -14%"}, {"smiles": "CCC1(CC)C(=O)C=CNC1=O", "activity change, negative = cell killing": "inactive: -7.69%"}, {"smiles": "CCc1ccc(C2CCNCC2)cc1", "activity change, negative = cell killing": "inactive: -21.2%"}, {"smiles": "c1ccc(N2CCNCC2)cc1", "outcome": "inactive"}, {"smiles": "OC(c1ccccc1)(c1ccccc1)C1CCNCC1", "Potency": "inconclusive: 33.5 µM [inhibitor, partial curve, poor fit]"}, {"smiles": "C[C@]12CC[C@@H](O)C[C@@H]1CC[C@@H]1[C@@H]2CC[C@]2(C)C(=O)[C@@H](Br)C[C@@H]12", "Potency": "active: 10.3 µM"}, {"smiles": "O=S(=O)(c1ccc(Cl)cc1)c1ccc(Cl)cc1", "activity change, negative = cell killing": "inactive: -23.1% [at 91.9 µM]"}, {"smiles": "Cc1ncsc1CCCl", "activity change, negative = cell killing": "inactive: -2.6%"}, {"smiles": "COc1ccc(C(=O)c2c(C)n(CCN3CCOCC3)c3cc(I)ccc23)cc1", "Potency": "active: 14.8 µM"}, {"smiles": "C=CCN1CC[C@]23c4c5ccc(O)c4O[C@H]2C(=O)CC[C@@]3(O)[C@H]1C5", "Potency": "inconclusive: 26.6 µM [inhibitor, partial curve, poor fit]"}, {"smiles": "CCC1(O)CCC2C3CCC4=CC(=O)CCC4C3CCC21CC", "note": "(centres undefined)", "Potency": "inconclusive: 16.3 µM [inhibitor, single point]"}, {"smiles": "C#CC1(O)CCC2C3CCC4=CC(=O)CCC4(C)C3CCC21C", "note": "(centres undefined)", "activity change, negative = cell killing": "inactive: 0.201%"}, {"smiles": "CN1[C@@H]2CC[C@H]1CC(OC(=O)c1cc(Cl)cc(Cl)c1)C2", "note": "(some centres undefined)", "Potency": "inconclusive: 29.9 µM [inhibitor, single point]"}, {"smiles": "CC[C@H](C)[C@H](NC(=O)[C@H]1CCCCN1C)C(=O)N(COC(=O)CC(C)C)[C@H](C[C@@H](OC(C)=O)c1nc(C(=O)N[C@@H](Cc2ccc(O)cc2)C[C@H](C)C(=O)O)cs1)C(C)C", "Potency": "active: 0.0003 µM"}, {"smiles": "COc1nn(CSP(=S)(OC)OC)c(=O)s1", "Potency": "active: 13.7 µM"}, {"smiles": "Oc1ccc2c3c1O[C@H]1[C@@H](O)C=C[C@H]4[C@@H](C2)NCC[C@@]341", "Potency": "active: 39.7 µM"}, {"smiles": "CC(=O)OC1(c2ccccc2)CCN(CCc2ccccc2)CC1", "activity change, negative = cell killing": "inactive: -1.84% [at 91.9 µM]"}, {"smiles": "CC1OC(C)OC(C)O1", "note": "(centres undefined)", "outcome": "inactive"}, {"smiles": "NCCc1ccc(O)cc1", "Potency": "inconclusive: 33.5 µM [inhibitor, partial curve, poor fit]"}, {"smiles": "CC(=O)OC[C@]12C[C@H](O)C(C)=C[C@H]1O[C@@H]1[C@H](O)[C@@H](OC(C)=O)[C@@]2(C)[C@]12CO2", "Potency": "inconclusive: 0.0028 µM [inhibitor, full curve, poor fit]"}, {"smiles": "CC(C)Oc1cccc(NC(=O)c2ccccc2C(F)(F)F)c1", "Potency": "active: 24.3 µM"}, {"smiles": "CCOP(=S)(OCC)Oc1cc(C)nc(C(C)C)n1", "activity change, negative = cell killing": "inactive: 5.76%"}, {"smiles": "CC(C)NCC(O)c1ccc(N)c(C#N)c1", "note": "(centres undefined)", "activity change, negative = cell killing": "inactive: 6.09%"}, {"smiles": "CC(C)(C)NCC(O)c1ccccc1Cl", "note": "(centres undefined)", "activity change, negative = cell killing": "inactive: 4.66%"}, {"smiles": "C[C@]12CC[C@H]3[C@@H](CCC4=CC(=O)CC[C@@]43C)[C@@H]1CC[C@@H]2C(=O)O", "activity change, negative = cell killing": "inactive: 1.78%"}]}]}
